Source: article PMC4336329 (PLoS ONE, 2015)
About 14,000 (4.5%) of roughly 310,000 compounds showed an effect of 50% or more. Effects have a minus sign here. The list shows a part of the results.

biological target: human ether-à-go-go-related gene (hERG) potassium channel (human, UniProt Q12809); experiment: primary screen, population patch clamp on CHO cells stably expressing hERG
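Further: peak tail current of the secondary pulse compared with the same well before compound.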

Chain of human ether-à-go-go-related gene (hERG) potassium channel (Q12809 whole entry, looked up): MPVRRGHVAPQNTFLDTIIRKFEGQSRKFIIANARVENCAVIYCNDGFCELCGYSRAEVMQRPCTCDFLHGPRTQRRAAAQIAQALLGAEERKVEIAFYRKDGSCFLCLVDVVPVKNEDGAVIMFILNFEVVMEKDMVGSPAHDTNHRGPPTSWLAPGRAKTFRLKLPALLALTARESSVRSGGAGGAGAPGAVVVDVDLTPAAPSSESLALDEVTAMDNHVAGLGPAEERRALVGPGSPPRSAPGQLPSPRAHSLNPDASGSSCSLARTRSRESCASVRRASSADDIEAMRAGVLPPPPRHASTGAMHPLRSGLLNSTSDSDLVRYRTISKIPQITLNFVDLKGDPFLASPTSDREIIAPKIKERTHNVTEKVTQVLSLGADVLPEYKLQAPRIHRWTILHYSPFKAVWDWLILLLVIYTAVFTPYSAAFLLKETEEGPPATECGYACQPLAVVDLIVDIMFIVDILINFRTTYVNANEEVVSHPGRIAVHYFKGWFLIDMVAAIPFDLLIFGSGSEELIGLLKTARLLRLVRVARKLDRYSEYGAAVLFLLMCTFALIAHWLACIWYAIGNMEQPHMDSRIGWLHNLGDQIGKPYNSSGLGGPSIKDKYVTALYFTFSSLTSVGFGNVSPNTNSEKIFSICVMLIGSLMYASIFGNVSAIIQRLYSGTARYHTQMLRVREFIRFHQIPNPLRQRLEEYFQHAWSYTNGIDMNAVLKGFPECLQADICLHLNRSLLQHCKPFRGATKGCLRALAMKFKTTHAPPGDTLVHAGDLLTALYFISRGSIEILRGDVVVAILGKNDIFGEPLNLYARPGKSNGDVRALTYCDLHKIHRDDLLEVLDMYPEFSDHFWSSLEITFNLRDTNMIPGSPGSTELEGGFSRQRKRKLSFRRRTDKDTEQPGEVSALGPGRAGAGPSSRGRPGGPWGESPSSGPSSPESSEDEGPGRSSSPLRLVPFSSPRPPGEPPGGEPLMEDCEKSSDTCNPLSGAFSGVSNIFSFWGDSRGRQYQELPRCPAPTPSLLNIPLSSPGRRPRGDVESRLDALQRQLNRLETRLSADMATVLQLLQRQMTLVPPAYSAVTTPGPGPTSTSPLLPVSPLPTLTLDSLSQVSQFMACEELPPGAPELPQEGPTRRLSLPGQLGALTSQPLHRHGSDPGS

Row | Structure (SMILES) | hERG current change (%, negative = inhibition) at 10uM [%]
1 | CC(=O)NCC(=O)NC1CCCc2c1cnn2-c1ccc(C(C)(C)C)cc1 (stereo not drawn) | -24.4
2 | Cc1nnc(NC(=O)CSc2nnc3ncccn23)s1 | 10.7
3 | O=C1c2ccccc2C(Nc2cccnc2)N1Cc1ccccc1 (stereo not drawn) | -37.7
4 | c1ccc(C2=Nc3ccccc3OC2)cc1 | 4.25
5 | O=C(Cn1c(C(F)(F)F)nc2ccccc21)NCCCN1CCOCC1 | 8.96
6 | COc1ccc([C@@H]2[C@@H]3C(=O)N(C(C)(C)C)C(=O)[C@@H]3[C@]3(Cc4ccc(Cl)cc4)C(=O)N(c4ccc(OC)cc4)C(=O)N23)cc1 | -10.2
7 | Cc1ccc2c(c1)nnn2C1CCN(S(=O)(=O)c2ccc3ccccc3c2)CC1 | -3.19
8 | COc1ccc(NCc2nnc(SCC(=O)Nc3nc(-c4ccccc4)cs3)n2-c2ccccc2)cc1 | 13
9 | O=C(CSCc1cnn(-c2ccccc2)c1-n1cccc1)NCc1cccs1 | -40.4
10 | CCOC(=O)c1c(C)[nH]c(C(=O)N/N=C/c2ccc(OC)c(OC)c2)c1C | 12.7
11 | CCOc1ccc(C2C(C(=O)c3ccc(C)o3)=C(O)C(=O)N2CCN2CCOCC2)cc1OC (stereo not drawn) | 12.8
12 | NS(=O)(=O)c1ccc(CCn2c(=S)[nH]c3ccccc3c2=O)cc1 | -5.32
13 | OC(COc1ccc(CN2CCSCC2)cc1)CN1CCCCC1 (stereo not drawn) | 8.52
14 | CCC(C)NC(=O)c1ccccc1-c1nc2ccccc2[nH]1 (stereo not drawn) | -47.4
15 | CN(C)CCCn1c2c(c(SCC(=O)Nc3cccc4ccccc34)nc1=O)CCCC2 | -45.6
16 | N#CC1=C(N)NC(SCc2ccc(Br)cc2)=C(C#N)C12CCCCC2 | 10
17 | Cc1onc(-c2ccccc2Cl)c1C(=O)Nc1ccc2c(c1)OCO2 | 10.3
18 | Cc1nn(C(C)(C)C)c(C)c1/C=N/OC(=O)Nc1ccc(Cl)c(Cl)c1 | 1.85
19 | O=C(C1=C(O)C(=O)N(CCN2CCOCC2)C1c1cccc(Br)c1)c1cc2ccccc2o1 (stereo not drawn) | 18.6
20 | Cc1[nH]c2ccccc2c1C(=O)C(C)OC(=O)c1ccc([N+](=O)[O-])o1 (stereo not drawn) | -8.87
21 | Cc1ccn(C(=O)c2ccc(NC(=O)C3CCCCC3)cc2)n1 | -6.3
22 | COc1ccc(-c2nnn(CCc3nn[nH]n3)n2)cc1OC | 1.91
23 | O=C(Cn1nnc2c(cnn2-c2ccc(F)cc2)c1=O)c1ccccc1F | 5.09
24 | CCOc1ccc(N(CC(=O)N/N=C/c2cc([N+](=O)[O-])ccc2Cl)S(C)(=O)=O)cc1 | -9.53
25 | COc1cc(S(=O)(=O)N2CCC(c3nc4ccccc4s3)CC2)ccc1S(=O)(=O)N1CC(C)CC(C)C1 (stereo not drawn) | 12.2
26 | Cc1cc(C(=O)COc2ccccc2C(N)=O)c(C)n1C | 4.22
27 | O=c1c2ccccc2nc(-c2cccs2)n1-c1ccc2ccccc2c1 | 2.34

Row | Structure (SMILES) | hERG current change (%, negative = inhibition) at 10uM [%]
28 | COc1ccc(CNC(=O)COC(=O)c2cc(-c3ccc(Cl)s3)nc3ccccc23)cc1 | 1.05
29 | Cc1ccc(Cl)cc1N(CC(=O)NC1CCCC1)C(=O)c1csnn1 | 18.4
30 | Cc1cc(C)c(S(=O)(=O)c2ccccc2C)c(Cl)n1 | -19.9
31 | O=C(Cc1ccccc1)NCc1ccncc1 | 8.49
32 | CCOC(=O)c1c(NC(=O)C2(C)Cc3ccccc3C(=O)O2)sc2c1CCCC2 (stereo not drawn) | 38.7
33 | CC1CCN(C(=O)c2cc3c(ccc4ccccc43)o2)CC1 | -35.3
34 | O=C(OCC(=O)N1CCCCCC1)c1cccc(Cl)c1 | 4.77
35 | CC(CCc1ccccc1)NC(=O)c1cccnc1 (stereo not drawn) | 19.5
36 | CCC(C)NC(=O)c1ccc2c(c1)S(=O)(=O)c1ccccc1C2=O (stereo not drawn) | 10.1
37 | Cn1cc(CNCc2cnc3ccccn23)c(-c2ccc(Oc3ccccc3)cc2)n1 | -50
38 | C=C(C)CSc1nnc(-c2ccc(OC)cc2)n1N | -4.21
39 | CCn1c(=O)cc(SCC(=O)NCc2ccc(C)o2)c2ccccc21 | -9.75
40 | CCOC(=O)C1=C(O)C(=O)N(c2ccc(S(N)(=O)=O)cc2)C1c1ccc(OC)cc1OC (stereo not drawn) | 12
41 | CN(CC(=O)Nc1ccccc1Cl)C(=O)COC(=O)c1cc(S(=O)(=O)N(C)C)ccc1N1CCCC1 | -0.895
42 | Cn1c(=O)c(C#N)c(-c2ccccc2)n2cnnc12 | -4.47
43 | Cc1c(NC(=O)CN2CCN(C(=O)c3ccco3)CC2)c(=O)n(-c2ccccc2)n1C | -1.76
44 | CCOC(=O)c1ccc(NC(=O)CCn2c(=O)oc3ccccc32)cc1 | 4.76
45 | O=C(NCC(c1ccco1)N1CCN(c2ccc(F)cc2)CC1)C1CCCCC1 (stereo not drawn) | -41.1
46 | Cc1cc(N2C(=O)C(O)=C(C(=O)c3ccco3)C2c2cccc(Cl)c2)no1 (stereo not drawn) | 3.71
47 | COc1cccc(CNC(=O)CCCNS(=O)(=O)c2cccs2)c1 | 0.315
48 | COc1ccccc1CC(=O)N(Cc1ccccc1)c1ccc(C)cc1 | -16
49 | NC(=O)CC[C@@H]1NC(=O)[C@@H]2CCCN2C(=O)c2cc([N+](=O)[O-])cc(I)c2NCCC[C@@H](C(=O)NC(CC(=O)O)C(N)=O)NC1=O (stereo partly drawn) | 2.63
50 | COc1cccc(CN(C)CC2CCCN(CCc3ccccc3C)C2)c1 (stereo not drawn) | -109
51 | CC(=O)c1ccc(Nc2cc(C)nc3ncnn23)cc1 | -4.75
52 | O=C(/C=C/c1cccc(Cl)c1)Nn1c(-c2cccs2)nc2ccccc2c1=O | 12
53 | O=C(/C=C/c1ccccc1)NC(=S)Nc1ncccn1 | 14.8
54 | COc1ccc(CC(=O)NCC2CCCN(Cc3ccc(SC)cc3)C2)cc1 (stereo not drawn) | -67.5
